Data: the RNAGym collection of RNA variant scans (doi:10.7554/elife.90254)
Read counts are not given, so values of variants with three or more changes are uncertain.

B1: LINE1-mini (parent)
chain: GGCAGAGCUCAACACAGCGUGGCAAAGUGGCUGUGGCUAGACUGCC

Variants of: B1
Test: self-cleavage, relative activity (ratio to wild type); higher = more cleavage; in vitro, sequencing; the parent is a self-cleaving ribozyme

Row | Variant | self-cleavage
1 | GGCAGAGCUCGACACAGCGCGGCAAAGAGGAUGUGGCUAGACUGCC | 0.03
2 | GGCAGAGCUCUACACAGCGUGGCCAAGUUGCUGUGGCUAGACUGAC | 0
3 | GGCAGAGCUCGACACAGCGUGGCAAAGUGGCGGCAGUUAGACUGCC | 0.02
4 | GGCAGAGCUCUACAUAACCUGGCAAAGUGGCUGUGGCUAGACUGCC | 0.02
5 | GGCAGAGCUCUACACAGCGUGGCAAAGUGGCUGUUGCUAGCCUGCC | 0
6 | GGCAGAGCUCUACACAGCGUGGCAAAGUAGCUGUGGCUAAACUGCU | 0.03
7 | GGCAGAGCUCUACACAGCGUGGCAAAGUUGCCGUGGCUAGACGGCC | 0
8 | GGCAGAGCUCUCCACAGCGUGGUAAAGUGGCUGUGGCUAGACUGCC | 0.01
9 | GGCAGAGCUCUACACAGCGUGGCAAAGUGGCUGUGGCUAGCCCGCC | 0
10 | GGCAGAGCUCUACACAGCGUGGCAAAGUGUCUGUUGCUAGUCUGCC | 0.02
11 | GGCAGAGCUCGACACAUCAUGGCAAACUGGCUGUGGCUAGACUGCC | 0.01
12 | GGCAGAGCUCUACACAGCAGGGCAAAGAGGCUGUGGCUAGCCCACC | 0
13 | GGCAGAGCUCUACACAACGUGGCAAAGUGGCUGUGGCCAGACUGGC | 0.01
14 | GGCAGAGCUCGACACAGCGUUGCAAAGUGGCUGUGGUUUGACUGAC | 0.01
15 | GGCAGAGCUCUACACAGCGUGUCAUAGUGGAGGUGGCUAGACUGCC | 0.01
16 | GGCAGAGCUCGACACAGCGUGGCAAAGUGGCUGUGACUAGCCUGCC | 0.01
17 | GGCAGAGCUCGACACAGCGUGGCAAAGUGACUGUGGCUAGACUGCA | 0.03
18 | GGCAGAGCUCUACACUGCGUGGCAAAGGGGCUGCCGCUAGACUGCC | 0.01
19 | GGCAGAGCUCUACACAGCCUGGGGAAGUCGCUUUGGCUAAACUGCC | 0.04

Row | Variant | self-cleavage
20 | GGCAGAGCUCUACACAGCGCGGCAAAGUCGCUGUGGCUAGACUGCA | 0.06
21 | GGCAGAGCUCUACACAGCGUGGCAAGGUGGCUGUGACUAGACUGGU | 0
22 | GGCAGAGCUCUACACAGUGUGGCAAAGUGGCUCUGGCUUGACUGCC | 0
23 | GGCAGAGCUCGACACACCGUGGCUAAGGGGCUGUCACUAGACUGCC | 0
24 | GGCAGAGCUCUACACAGCGUGAAAAAGUGGGUGUGGCUAGACUGCC | 0.02
25 | GGCAGAGCUCUACACAGAGUGGCAAAGAGUCUGUGGCCAGACUGCC | 0.02
26 | GGCAGAGCUCUAAAGAGCGUGGCAAAGUGGCUGUGGAUAGACUGCC | 0.01
27 | GGCAGAGCUCUUCACAGUGUGACAAUGUGGCUGUGGCUAGACUGCC | 0.04
28 | GGCAGAGCUCUACACAGCGAAGGAAAGUGGCUGUGGCUAGACUGCC | 0.2
29 | GGCAGAGCUCGACACAGCGUGGCAAAUUGCCUGAGGCUAGACUGCC | 0.03
30 | GGCAGAGCUCGACACAUAGGGCCAAAGUGGCUGUGGCUAGACUGCC | 0.03
31 | GGCAGAGCUCUACAGAGCGUGGCAAAGUGACUGUGGCUAGACUGCC | 0.01
32 | GGCAGAGCUCUACACAGCGUGGCAAAGUGGCUGUUGCGCGACUGCC | 0
33 | GGCAGAGCUCUAUGCAGAGUGGCAAAGUGGCUAUGGAUACACUGCC | 0.01
34 | GGCAGAGCUCUACACAGCCUGGGAAAGUGGCUGUGGCUAGACUGCG | 0.24
35 | GGCAGAGCUCUACACAGCGUGGCAAAGUGGCUGUGACUAGAAUGAC | 0.01
36 | GGCAGAGCUCUGCACAGCGUGGCAAAGUGGCUGUGGCUAGACUUCC | 0.02
37 | GGCAGAGCUCUACACGGAGGGGCAAAGGGGCUGUGCCUAGACUGCC | 0.01
38 | GGCAGAGCUCUACACAGCGUUGCAAGGUGGUUGUGGCUAGACUGUC | 0.08

Row | Variant | self-cleavage
39 | GGCAGAGCUCUACACAGCGUGGCAAAGUGGCUGUAGCUAGACUACC | 0.04
40 | GGCAGAGCUCUACGCAGCGUGGCAAAGUAGCUGUGGUUAGACUGCC | 0.02
41 | GGCAGAGCUCUACACAACGUGGCAAGGUGGCUGUGGCCAGACUGCC | 0
42 | GGCAGAGCUCUACACAGCGUUGCAGAGUGGCUGUGGCUAGACAGCC | 0.03
43 | GGCAGAGCUCUACACAGCCUAGUAAAGUGCCUGUGGCUAGACUGCC | 0.58
44 | GGCAGAGCUCUACACAGCAUGGCAAAGUGGCUGUGGCUGGACUGCC | 0.09
45 | GGCAGAGCUCUACACAACGUAGCAAAGUGGCUGUGGCUAGACAGCC | 0.01
46 | GGCAGAGCUCUACUGAGCGUUGCAAAGUGGCUGUGGCUAGACAGCC | 0
47 | GGCAGAGCUCUCCAGAGCGUGGCAAAGUGUCUGUGGCUAGACUGCC | 0
48 | GGCAGAGCUCUAUACAGCGUGGUAAAGUGGCUGUCGCUAAACUGAC | 0
49 | GGCAGAGCUCGACACACCGUGGCAAAGUGGCUGUGGCUAGGCUGCC | 0.03
50 | GGCAGAGCUCUGCACAGCGUAGUAAAGUGUCUGGGGCUAGACUGCC | 0.01
51 | GGCAGAGCUCUCCACAGCGUGGCAAAGUGGCUGUGGCUAGACUGCG | 0.05
52 | GGCAGAGCUCGACACAGCGUGGCAAAGUGGCUGUCGGUAGACUGCC | 0.06
53 | GGCAGAGCUCUACACAGCGUCGUAAAGUGGCUGUGGCUUGACUGCC | 0.04
54 | GGCAGAGCUCUACUUAGCGUGGCAAAGUGGCUGUGGCUAGACUGCC | 0.03
55 | GGCAGAGCUCGACACAGCGCGGCAUAGUGGCUUUGGCUAGUCUGCC | 0
56 | GGCAGAGCUCGACACACCGUGGCAAAGUGGCUGUGGCUAGACGGCA | 0.01
